# Results: PubChem BioAssay AID493208 (National Center for Advancing Translational Sciences (NCATS), 2011)
# About 340 (0.77%) of roughly 44,000 compounds were called active. Roughly 5% stayed inconclusive and do not appear here. Calls follow the shape of the dose curve; as a rule, active = well fitted inhibition curve with a large enough effect; inconclusive = small, poorly fitted or top-dose-only effect; inactive = flat fitted curve, though single readings scatter. The list shows a part of the results.
# Assay: Acumen qHTS Assay for Inhibitors of the mTORC1 Signaling Pathway in MEF (Tsc2-/-, p53-/-) Cells: Sytravon; also: nearly all actives have a fitted effect of over 50% in size;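 as to activity change, negative = inhibition: plate controls were DMSO for no effect and rapamycin for full effect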
# Details: phospho-rpS6 immunofluorescence/PI, 24 h; series mostly up to 38.3 µM; activity change, negative = inhibition: at the top concentration
# Method in brief: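 Immunofluorescence of rpS6 phosphorylation in Tsc2-/-, p53-/- MEFs after 24 h compound exposure, normalized to propidium iodide signal. Activity is expressed as % positive cells, thresholded with 7.5 nM rapamycin.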
# Potency is read from the fitted curve at half-maximal effect.
SMILES,"activity change, negative = inhibition",Potency
CCC(C(=O)Nc1cccc(Cl)c1C)n1nc(C)c2sc3ccccc3c2c1=O (centres undefined),inactive: -0.0926%,
COc1ccc(-c2noc(CN(C)S(=O)(=O)c3c(C)cc(C)cc3C)n2)cc1OC,inactive: -1.71%,
COc1ccc(C)cc1NC(=O)c1ccc(NS(=O)(=O)c2c(C)noc2C)cc1,inactive: -5.51%,
Cc1ccc(-c2nc(CCNC(=O)c3ccc(C)c(C)c3)cs2)cc1,inactive: -13.6%,
CCOC(=O)c1ccc(NC2=CC(c3ccc(OCC)cc3)N(c3ccc(C(=O)OCC)cc3)C2=O)cc1 (centres undefined),inactive: 8.17%,
CCOC(=O)c1cnc2cc(C(F)(F)F)ccc2c1Nc1cc(C)ccc1OC,inactive: -18.9%,
CCCCn1cc(S(=O)(=O)c2ccc(C)cc2)c(=O)c2cc(F)c(N3CCCCC3)cc21,inactive: -6.42%,
CCOc1ccccc1NC(=O)CSc1nnc2[nH]c(=O)cc(C)n12,inactive: 5.81%,
Cc1cc(O)c(C(c2ccccc2)N2CCCCC2)c(=O)n1Cc1ccco1 (centres undefined),inactive: 1.04%,
COc1ccccc1-c1nc2n(n1)C(c1ccccc1Cl)C(C(=O)Nc1cccnc1)=C(C)N2 (centres undefined),inactive: -7.26%,
CCSc1nn(CC(=O)Nc2cccc(CC)c2)c(N)c1S(=O)(=O)c1ccccc1,inactive: -4.05%,
COCCCNC(=O)C1CCN(Cc2cc3ccccc3n2Cc2ccccc2C)CC1,inactive: -12.3%,
Cc1oc(-c2ccc(Cl)cc2)nc1CN1CCCC(C(=O)NCCc2ccc(Cl)cc2)C1 (centres undefined),inactive: -3.31%,
Cc1ccc(S(=O)(=O)c2c(O)cc(C)c(NS(=O)(=O)c3ccc(Br)cc3)c2C)cc1,inactive: -2.02%,
COc1ccc(NC(=O)c2c(NCc3cccs3)sc3c2CCC(C)C3)c(OC)c1 (centres undefined),inactive: -20.2%,
O=C(CSc1nnc(-c2ccccc2Cl)o1)N1CCCc2ccccc21,inactive: 8.26%,
Cc1c(C(=O)N(Cc2ccccc2F)C2CCS(=O)(=O)C2)oc2ccccc12 (centres undefined),inactive: 3.54%,
CCOc1ccc(C(=O)c2cn(CC(=O)Nc3ccc(Cl)cc3)c3cc4c(cc3c2=O)OCO4)cc1,inactive: 2.16%,
COc1ccc(-c2nnc(SCC(=O)Nc3cccc(C(F)(F)F)c3)s2)cc1,inactive: -6.74%,
Cc1nn(C)c2c1c(C(F)(F)F)cc(=O)n2C(C)C(=O)Nc1ccccc1F (centres undefined),inactive: -9.43%,
CC(=O)N1CCc2cc(Br)cc(S(=O)(=O)CCC(=O)N3CCN(c4ccc(F)cc4)CC3)c21,inactive: 0%,
COc1cc(/C=C/c2nc(C#N)c(N3CCN(C)CC3)o2)cc(OC)c1OC,inactive: 3.36%,
COc1cccc(NS(=O)(=O)c2ccc3c(c2)n(C)c(=O)n3C)c1,inactive: -24%,
COc1ccc(NC(=O)COCc2cc(-c3ccc4c(c3)OCO4)on2)cc1,inactive: 0.919%,

SMILES,"activity change, negative = inhibition",Potency
CN(C(=O)c1ccc2c(c1)N(Cc1cccc(Cl)c1)C(=O)c1ccccc1S2(=O)=O)C1CCCCC1,inactive: 0.868%,
CSc1cccc(NC(=O)C2CCN(c3nc4ccccc4[nH]3)CC2)c1,inactive: -15.7%,
Cc1ccc(Cn2c(SCc3ccc(C(=O)NC4CCCCC4)cc3)nc3ccncc32)cc1,inactive: -0.273%,
COCCNC(=O)c1cnc2sc(N3CCCCC3)nn2c1=O,inactive: 1.55%,
Cc1c(-c2nc(-c3ccccc3)no2)nnn1-c1ccc(F)c(Cl)c1,inactive: 6.16%,
COc1ccc(Cl)c2sc(NC(=O)c3ccc(S(=O)(=O)N4CCOCC4)cc3)nc12,inactive: 5.24%,
CCc1ccc(NC(=O)Cn2c(=O)n(-c3ccc(Cl)c(Cl)c3)c(=O)c3c(C)c(C)sc32)cc1,inactive: -11.5%,
CN(C(=O)CCc1nc(-c2ccccc2F)no1)c1ccc(Cl)cc1,inactive: -9.25%,
O=S(=O)(c1ccc(OC(F)(F)F)cc1)N1CCC(c2nnnn2-c2ccc(F)cc2)CC1,inactive: -1.3%,
Cc1ccc(NC(=O)c2nc(S(C)(=O)=O)ncc2N(Cc2ccc(C(C)(C)C)cc2)Cc2ccco2)cc1C,inactive: -3.12%,
COc1cc(C(=O)NCC(c2ccc3c(c2)OCO3)N2CCOCC2)cc(OC)c1OC (centres undefined),inactive: 3.31%,
CCCC(O)c1nc2ccccc2n1CCCOc1ccc(Cl)cc1 (centres undefined),inactive: -8.35%,
CCc1cccc(NC(=O)C2CCCN(c3ncnc4onc(-c5ccc(F)cc5)c34)C2)c1 (centres undefined),inactive: -8.67%,
COc1ccc(-c2noc(CSCC(=O)Nc3cc(OC)c(OC)c(OC)c3)n2)cc1OC,inactive: -0.391%,
CCn1cc(C(=O)OCC(=O)Nc2ccc(C)c(Cl)c2)c(=O)c2ccc(C)nc21,inactive: 4.04%,
CCN1CCSc2ccc(C(=O)NCc3ccc(OC(C)C)cc3)cc21,inactive: -3.81%,
CCOc1ccc(-c2cc3c(=O)n(CC(=O)NCc4ccc(C)cc4)ccn3n2)cc1,inactive: 0%,
COc1ccc(N(Cc2cc3ccccc3[nH]c2=O)C(=O)c2cccc(Cl)c2)cc1,inactive: -0.397%,
CCOC(=O)Cc1ccc(NC(=O)NCc2c(-n3cccc3)sc3c2CCCC3)cc1,inactive: 0.778%,
CC(=O)N1c2ccccc2CC1C(=O)N1CCN(c2ccccc2)CC1 (centres undefined),inactive: 0%,
Cc1ccc(NC(=O)c2c(C)cc(C)nc2SCC(=O)Nc2ccc(Br)cc2)cc1,inactive: -3.26%,
CCc1nc2ccc(C(=O)NCCc3ccccc3OC)cc2nc1CC,inactive: 1.68%,
CCCCN1CC(c2nc3ccccc3n2CCCCOc2cc(C)ccc2C)CC1=O (centres undefined),inactive: -1.49%,
Cc1cc2nc(-c3cccc(NC(=O)c4cccc5ccccc45)c3)oc2cc1C,inactive: -0.564%,

SMILES,"activity change, negative = inhibition",Potency
Cc1cccc(OCC(=O)Nc2cccc(OCc3cc(=O)n4cccc(C)c4n3)c2)c1,inactive: 0%,
O=C(/C=C/c1ccccc1)Nc1cc(-c2nc3cc(Cl)ccc3o2)ccc1Cl,inactive: 1.14%,
CCOc1ccc(N2CC(NC(=O)c3ccco3)CC2=O)cc1 (centres undefined),inactive: -0.496%,
COc1cccc(-n2ccnc2SCC(=O)Nc2c(C)cc(C)cc2C)c1,inactive: -4.38%,
Cc1cc(C)c(NC(=O)Cn2c(=O)c3cccn3c3ccccc32)c(C)c1,inactive: -18.4%,
CCCCNC(=O)c1ccc2c(c1)N(Cc1ccc(F)cc1)C(=O)c1ccccc1S2=O (centres undefined),inactive: -3.79%,
Cc1ccc(NC(=O)/C=C\C(=O)N(c2ccc(C(C)C)cc2)C(C(=O)NCc2ccco2)c2ccc(Cl)cc2)cc1 (centres undefined),inactive: -3.06%,
CCOCCCNC(=O)c1ccc(-n2c(-c3ccccc3)cc3c2CCCC3)cc1,inactive: -13.1%,
Cc1cccc(C(=O)OCc2cc(=O)n3ccsc3n2)c1,inactive: -2.52%,
COc1ccc(Cn2ccc3nc(C)c(C(=O)Nc4ccc(OC)cc4)cc3c2=O)cc1,inactive: -14%,
COc1ccc(CNC(=O)C2CCN(S(=O)(=O)c3c(C)noc3/C=C/c3ccccc3F)CC2)cc1,inactive: 2.32%,
Cc1ccc(-n2c(C)cc(C(=O)C(=O)Nc3ccccc3)c2C)c(C)c1,inactive: -3.91%,
CC(C(=O)NCCSCc1cccc(Cl)c1)N(c1ccccc1)S(C)(=O)=O (centres undefined),inactive: -19.5%,
CC(=O)Nc1nc2n(n1)C(c1ccc(F)cc1)C=C(c1ccc(Cl)cc1)N2 (centres undefined),inactive: 0.666%,
COc1ccc(CCNC(=O)CCn2c(=O)c3ccccc3n(Cc3ccccc3F)c2=O)cc1OC,inactive: -14.9%,
CC(=O)c1cccc(NC(=O)C2CCN(S(=O)(=O)c3ccc4c(c3)CCCN4C(C)=O)CC2)c1,inactive: -4.07%,
CC1CCN(c2nn3c(=O)c(C(=O)NCCCOC(C)C)cnc3s2)CC1,inactive: -15.9%,
Cc1c(C(=O)OCc2ccccc2)[nH]c2c1C(=O)CC(c1ccc(C(C)(C)C)cc1)C2 (centres undefined),inactive: 0.197%,
CCc1cccc(NC(=O)c2cc3c(=O)n(Cc4ccccc4)ccc3nc2C)c1,inactive: -11.5%,
Cc1ccc(CN2CCCn3nc(C(=O)NCCc4ccccc4C)cc3C2=O)cc1,inactive: 0%,
CC(C)c1ccc(NC(=O)C2CCN(C(=O)c3ccc(F)cc3)CC2)cc1,inactive: -12.1%,
COc1cc(C(=O)Nc2ccccc2-c2nc(-c3ccccc3)no2)cc(OC)c1OC,inactive: -9.38%,
Cc1ccc(C)c(NC(=O)CN(C)S(=O)(=O)c2cccc3nsnc23)c1,inactive: -0.481%,
Cc1ccc(-n2nc(C(=O)Nc3ccc(F)cc3F)c3c4ccccc4n(C)c3c2=O)cc1,inactive: -7.72%,

SMILES,"activity change, negative = inhibition",Potency
Cc1cccc(N(C)c2nc3ccc(C(=O)c4ccccc4)cc3n3c(C)nnc23)c1,inactive: 0.654%,
CC(C)(C)C1CCc2c(sc(NC(=O)c3cc4ccccc4c(=O)o3)c2C(N)=O)C1 (centres undefined),inactive: 1.38%,
Cc1ccc(C)c(NC(=O)Cn2c(=O)n(CCC(C)C)c(=O)c3cccnc32)c1,inactive: 0.716%,
CCCCCOc1ccc(/C=C/C(=O)Nc2sc(C)c(C)c2C(=O)OCC)cc1OC,inactive: 2.75%,
COc1ccccc1NC(=O)Cn1cc(S(=O)(=O)Cc2ccccc2)c2ccccc21,inactive: -8.67%,
CCN(CC)CCNC(=O)Cn1ncc2c3ccccc3n(Cc3ccc(Cl)cc3)c2c1=O,inactive: -6.3%,
Cc1ccc(-c2csc(-c3nc(-c4ccc(Br)s4)cs3)n2)cc1,inactive: -1.93%,
COc1ccc(NC(=O)Cn2nnc(C(=O)NCc3cccs3)c2N)cc1,inactive: -4.76%,
Cc1ccc(NC(=O)CSc2nc(=O)n(Cc3cccnc3)c3c2CCC3)cc1F,inactive: -0.342%,
COc1ccc(Cc2nc3ccc(C(=O)NCc4ccccc4C)cc3o2)cc1,inactive: -6.41%,
COc1ccc(NC(=O)CN2C(=O)CC(c3ccc(C)c(C)c3)=Nc3ccccc32)cc1OC,inactive: -15.6%,
CCC(CC)C(=O)Nc1ccc2nc(SCC(=O)N3CCCC3)sc2c1,inactive: 0%,
CCc1cccc(C)c1NC(=O)c1cc(S(=O)(=O)N(Cc2ccc(C(=O)OC)cc2)Cc2ccc(OC)c(OC)c2)ccc1F,inactive: 7.9%,
Cc1ccccc1Oc1nc2ccccn2c(=O)c1/C=C(\C#N)c1nc2ccccc2[nH]1,,active: 9.27 µM
CC(C)CCNC(=O)CN1C(=O)CSc2ccc(S(=O)(=O)N3CCC(C)CC3)cc21,inactive: 6.21%,
Cc1ccc2nc(-c3cccs3)c(Nc3c(C)cccc3C)n2c1,inactive: -14.8%,
CN(C)c1ccc(/C=C/c2nc(-c3ccccc3O)n(-c3ccccc3)n2)cc1,inactive: 4%,
Cc1c(C(=O)NCc2ccc(F)cc2)oc2ccc(S(=O)(=O)N3CCCCC3)cc12,inactive: -7.21%,
CCOC(=O)C1CCCN(c2nc3c(S(=O)(=O)c4ccc(CC)cc4)nnn3c3ccsc23)C1 (centres undefined),inactive: 3.52%,
Cc1ccc2c(c1)c1c(c(=O)n(-c3cccc(Cl)c3)c(=O)n1CC(=O)NCC1CCCO1)n2C (centres undefined),inactive: -5.74%,
Cn1c(=O)[nH]c(=O)c2c1nc(N1CCOCC1)n2Cc1ccccc1,inactive: -6.89%,
CCOC(=O)Cc1ccc(NC(=O)Nc2c[nH]c(=O)[nH]c2=O)cc1,inactive: 1.12%,
